Experimental data published in patent publication US9920069B2, “Compounds for treatment of fluoroquinolone-resistant bacteria” (The Board of Trustees of the University of Illinois, priority 2014, dated 2018).
Read-outs that look alike come from different tables or passages of the source.

How the values were obtained:
S83R E. coli DNA gyrase = target: T1, S83R E. coli DNA gyrase (Escherichia coli, UniProt P0AES4, S83R); type: biochemical
T1 construct: His tag (pTrcHisA vector, purified on Ni-NTA); made in house; host or cells: E. coli One Shot BL21 Star (DE3)

S83L E. coli DNA gyrase = target: T2, S83L E. coli DNA gyrase (Escherichia coli, UniProt P0AES4, S83L); type: biochemical
T2 construct: His tag (pTrcHisA vector, purified on Ni-NTA); made in house; host or cells: E. coli One Shot BL21 Star (DE3)

[1] = test system: low level CIP resistant strains of S. aureus ATCC 29213 (ParC mutation); type: cell-based

Row | SMILES | inhibition of S83R DNA gyrase (S83R E. coli DNA gyrase) | inhibition of S83L DNA gyrase (S83L E. coli DNA gyrase) | inhibition of S83R DNA gyrase (S83R E. coli DNA gyrase; in words) | sensitivity of low level CIP resistant strains [1] | concentration giving significant buildup of OC DNA (S83L E. coli DNA gyrase)
1 | O=C(O)c1cn(C2CC2)c2cc(N3CCNCC3)c(F)cc2c1=O [CIP, ciprofloxacin, reference compound] | much less effective | much less effective | – | – | –
2 | Cc1cc(=O)n(C)c2c3c4c(cc12)c(C)cc(=O)n4CO3 [DNM, deoxynybomycin] | – | – | buildup of OC DNA | not sensitive | 0.17 µM
3 | CCn1c(=O)cc(C)c2cc3c(C)cc(=O)n4c3c(c21)OC4 [DNM-2] | – | – | buildup of OC DNA | not sensitive | –
